# Measured values taken from the supplement of paper PMC3334620.
# Over roughly 33,000 sequences, “E-score (-0.5 to 0.5)” has its median near -0.035; the highest 2% begin near 0.34. The list shows a part of the results.
# Target: T1, Mot3 (UniProt P54785)
# T1 sequence: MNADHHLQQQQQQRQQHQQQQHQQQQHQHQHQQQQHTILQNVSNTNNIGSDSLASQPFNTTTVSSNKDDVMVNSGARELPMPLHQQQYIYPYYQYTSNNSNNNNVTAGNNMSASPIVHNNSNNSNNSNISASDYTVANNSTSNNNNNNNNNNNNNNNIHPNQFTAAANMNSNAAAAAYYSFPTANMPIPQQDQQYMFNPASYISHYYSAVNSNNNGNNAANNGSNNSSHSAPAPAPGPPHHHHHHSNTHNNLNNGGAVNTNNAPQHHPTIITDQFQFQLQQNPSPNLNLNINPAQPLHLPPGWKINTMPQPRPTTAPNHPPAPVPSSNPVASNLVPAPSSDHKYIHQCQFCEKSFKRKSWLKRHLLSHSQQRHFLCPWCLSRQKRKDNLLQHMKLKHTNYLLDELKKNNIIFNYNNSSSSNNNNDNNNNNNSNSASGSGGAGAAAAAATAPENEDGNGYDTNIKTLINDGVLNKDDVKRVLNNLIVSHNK
# Assay: PBM E-score (8-mer binding enrichment) (E-score (-0.5 to 0.5)); higher = stronger / more preferred TF binding; most listed sequences are background and not binding sites
# Conditions: protein concentration: 200 nM; construct: GST-full length
# Procedure, shortened: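 PURExpress in vitro transcription/translation supplied GST-tagged yeast transcription factors, either full-length or DNA-binding domain. Applied at about 100-200 nM to universal all-10-mer Agilent arrays double-stranded by primer extension, the bound protein was detected with fluorescent anti-GST. E-scores, modified Wilcoxon-Mann-Whitney statistics, were given by the Universal PBM Analysis Suite to ungapped eight-base words pooled with their reverse complements after masliner normalisation.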
row,Sequence,PBM E-score
1,AGCGGAAG,-0.241
2,AGAGATAT,-0.0187
3,AATTTTCC,0.146
4,GAGTGCAC,-0.113
5,AGTGAAGA,-0.0753
6,GACAACAA,0.154
7,CAGATTAG,-0.134
8,AAAGAACA,0.223
9,CTGTTGTA,0.162
10,TAACTTCA,0.194
11,GGGAGCCC,-0.238
12,AACATTTA,0.244
13,AGCCATGA,-0.177
14,GCCGGCGA,-0.234
15,CCTATAAA,0.127
16,CGGGAAAA,-0.0172
17,GGATACTA,-0.132
18,GAACGTTA,-0.029
19,ACACAGGC,0.354
20,GGAACCAA,0.038
21,GATCCCCC,-0.356
22,AAGAGTGG,-0.279
23,CCGTCCAG,-0.298
24,GTGCCATA,-0.141
25,GATGATGC,-0.251

row,Sequence,PBM E-score
1,GCTAAGCC,-0.224
2,CCGCGTAG,0.216
3,TAACGCAA,0.2
4,GCGCAACC,-0.274
5,CGCAACAC,0.151
6,CATTACGG,0.0231
7,GGTCTAGA,-0.215
8,GCGCATAC,0.033
9,CACGGTAA,0.103
10,ATCTAAAG,0.136
11,CTTAGGCC,-0.0744
12,AGTTGCCG,-0.105
13,CCGTTCAG,-0.311
14,CCTTTTCG,0.00969
15,ACGTCTAA,0.118
16,CTCCTCAA,-0.184
17,CGCTAGCC,-0.192
18,GTTCCCAA,-0.138
19,CCGATATA,0.0748
20,CTCCCCAA,-0.0983
21,AATTATTA,0.14
22,GTCACCGA,-0.06
23,GGATAGTA,0.0932
24,CTGATTAC,0.267
25,ACATGCAC,0.283

row,Sequence,PBM E-score
1,CCGTAGGC,0.285
2,GACAGCCC,-0.373
3,TATTAGCA,0.083
4,AAGTCGGG,-0.28
5,CCCAGTGA,-0.203
6,GACTTTGA,-0.00744
7,ATAATATC,0.00249
8,CGTTGGTA,0.165
9,ACCGCCCG,-0.352
10,CCCAGTTA,-0.142
11,CACATGTA,0.344
12,AGTCTCAT,-0.0812
13,CTGTATTA,0.146
14,CTATTGGA,-0.153
15,CTAGGGAA,-0.115
16,CTCGACAC,0.0998
17,AGTGCAAC,0.0919
18,GAGCATCC,-0.36
19,CGCAATAC,0.262
20,GTGCTCGA,-0.126
21,GTGTGGTA,0.0958
22,AAACGCAA,0.13
23,CCCCATCG,-0.14
24,CGGACATA,-0.0853
25,ATACGGCC,-0.155

row,Sequence,PBM E-score
1,CGACTCCA,-0.111
2,GGTCGATA,-0.259
3,GAGATGAC,-0.151
4,AACCAGAC,0.115
5,CCATCTGC,-0.272
6,GCCAAATA,-0.0589
7,GCCGATCC,-0.236
8,GTGGTGCA,-0.156
9,AGCCACGA,-0.0837
10,CACCTGGG,-0.155
11,AGTGATGG,-0.0829
12,ACTTAGTG,0.0824
13,AGGCCATA,-0.164
14,AGGATAAC,-0.0145
15,ATCGATAC,0.0638
16,CCATCGAC,-0.167
17,ATGGTAAC,0.141
18,TAGAAAAA,0.122
19,AACTATGA,0.0224
20,GAACGTCC,-0.118
21,CCTAGCAG,-0.203
22,CTACGCAA,0.278
23,AGTCTTAT,-0.0765
24,AGTTTACG,0.188
25,GTTGGTTA,0.103

row,Sequence,PBM E-score
1,AAATGAAC,0.176
2,CGCGGTCC,-0.263
3,CATGCTTC,0.0382
4,CAGCTACG,-0.0695
5,GTCATTAA,0.0517
6,GACAGATA,0.0793
7,CCCGCAGC,-0.378
8,CTATCTGC,-0.229
9,GGGAAATA,0.0874
10,GCCACGTA,0.059
11,GATCGCAA,-0.129
12,GGCAGTTA,-0.136
13,CAACGGCA,0.00468
14,ACTACTTA,0.117
15,TCCCGGGA,-0.379
16,CCTCGGCA,-0.11
17,ACAACAAA,0.206
18,CTCTGGAA,-0.124
19,CAGACGAA,0.0663
20,CGCTTCGA,-0.15
21,GGCCAGAA,0.0414
22,AAACCGCG,-0.0689
23,CGAGCAAA,-0.173
24,CCGAGATA,-0.175
25,CCACACAC,0.00618

row,Sequence,PBM E-score
1,AGAAATCA,0.0235
2,CCCCTAGA,-0.252
3,ATGGAAAT,0.0932
4,GGGATACA,0.0538
5,GGCAGCGA,-0.149
6,ACCGAGGC,-0.23
7,GACGGTCA,-0.246
8,GGTCTCGA,-0.0431
9,CTCCGGAC,-0.185
10,AACGCGCG,0.254
11,CACTGGAC,-0.0976
12,GCGCCTGA,0.156
13,ATAGGGAT,0.0533
14,AAGCACCG,-0.206
15,CTTGCTTC,0.0817
16,AGTTCATA,-0.111
17,GTCACAAC,0.0362
18,GCGAGGAC,-0.378
19,CGACGGAA,-0.241
20,ACGCTGAA,0.0802
21,GGGCTTTA,-0.151
22,CACTTGTC,-0.264
23,AGTCCCGA,-0.214
24,CTCGCTGC,-0.194
25,CTAGCCGA,-0.191

row,Sequence,PBM E-score
1,TAACTCCA,-0.179
2,GCGCCTCC,-0.164
3,GTCCAACA,0.153
4,CTTATGGC,-0.22
5,AAGACCGT,-0.0748
6,AACGTCAT,-0.014
7,AGTTAGGC,0.105
8,ACGTCCGG,-0.0368
9,AGCATCAA,0.0635
10,GACCCGGC,-0.348
11,GCGGCACA,-0.246
12,AAGCGAGA,-0.272
13,ACCTCGGA,-0.144
14,TCTACAGA,0.0845
15,AGCAAACG,-0.232
16,ATGAGCGA,-0.252
17,GTTTAGCA,-0.0722
18,ATTTAACC,0.0628
19,CACGTTGA,0.169
20,GGTTCGGA,-0.201
21,CTGGCACA,-0.11
22,ATTTTCGC,0.0218
